Assay [1] has as its target T1, c-MET on the surface of Hcc827 or Hcc827-GR6 cells (human, UniProt P08581).
T1 construct: whole, on cells; The cells express the receptor endogenously, and MET is amplified in Hcc827-GR6; also called cell surface MET
Description: flow cytometry binding curve on cells (the sheet does not name them; paragraph 217: Hcc827 GR6 cell line). As to the method:
(§1) The affinities of the cys-diabodies were evaluated by flow cytometry. Serial diluted cys-diabodies were incubated with Hcc827-GR6 cells at 4 degrees for 2 hours. The cys-diabodies were detected with 1/100 mouse anti-c-Myc antibody (Sigma, Cat# M4439) and stained with 1/100 PE or FITC conjugated goat anti mouse IgG polyclonal antibody (Jackson ImmunoResearch) in flow buffer.
(§2) The affinity of these 3 cys-diabodies were evaluated by flow cytometry. The concentrations of the purified proteins were determined by their A280, measured with Nanodrop 2000 (Thermal Scientific), and their calculated extinction coefficient (ProtParam tool, expasy.org). The binding curve was fitted with one-site total binding model by GraphPad Prism.
A general note: Flow cytometry measures light scatter and fluorescence of single cells or particles in a stream.

Assay [2] has as its target T1, c-MET on the surface of Hcc827 or …. Description: flow cytometry on Hcc827-GR6 cells, one-site total binding fit. As to the method:
as §1, §2

Assay [3] has the same target. Description: phage flow cytometry on Hcc827-GR6 cells, bound phage detected with FITC anti-M13 antibody. As to the method: For phage antibodies, flow cytometry was used to confirm their binding to c-MET expressing cells. Bacteria culture containing phage was concentrated 30 times into PBS according to published method (Antibody Engineering Methods and Protocols, Benny K. C. Lo). $2 \sim 5 \times 10^5$ c-MET positive Hcc827 or Hcc827-GR6 cells (Engelman et. al, Science, 2007) were incubated with 100 ul concentrated phage and 30 ul 4% milk-PBS on ice for 1 hour. Cells were then washed using flow buffer (PBS, 1% FBS, 2 mM EDTA), and the binding phage antibodies were detected by FITC conjugated anti-M13 monoclonal antibody (Santa Cruz Biotechnology, Cat# sc-53005 Fitc).

T1 sequence (P08581 25-1390): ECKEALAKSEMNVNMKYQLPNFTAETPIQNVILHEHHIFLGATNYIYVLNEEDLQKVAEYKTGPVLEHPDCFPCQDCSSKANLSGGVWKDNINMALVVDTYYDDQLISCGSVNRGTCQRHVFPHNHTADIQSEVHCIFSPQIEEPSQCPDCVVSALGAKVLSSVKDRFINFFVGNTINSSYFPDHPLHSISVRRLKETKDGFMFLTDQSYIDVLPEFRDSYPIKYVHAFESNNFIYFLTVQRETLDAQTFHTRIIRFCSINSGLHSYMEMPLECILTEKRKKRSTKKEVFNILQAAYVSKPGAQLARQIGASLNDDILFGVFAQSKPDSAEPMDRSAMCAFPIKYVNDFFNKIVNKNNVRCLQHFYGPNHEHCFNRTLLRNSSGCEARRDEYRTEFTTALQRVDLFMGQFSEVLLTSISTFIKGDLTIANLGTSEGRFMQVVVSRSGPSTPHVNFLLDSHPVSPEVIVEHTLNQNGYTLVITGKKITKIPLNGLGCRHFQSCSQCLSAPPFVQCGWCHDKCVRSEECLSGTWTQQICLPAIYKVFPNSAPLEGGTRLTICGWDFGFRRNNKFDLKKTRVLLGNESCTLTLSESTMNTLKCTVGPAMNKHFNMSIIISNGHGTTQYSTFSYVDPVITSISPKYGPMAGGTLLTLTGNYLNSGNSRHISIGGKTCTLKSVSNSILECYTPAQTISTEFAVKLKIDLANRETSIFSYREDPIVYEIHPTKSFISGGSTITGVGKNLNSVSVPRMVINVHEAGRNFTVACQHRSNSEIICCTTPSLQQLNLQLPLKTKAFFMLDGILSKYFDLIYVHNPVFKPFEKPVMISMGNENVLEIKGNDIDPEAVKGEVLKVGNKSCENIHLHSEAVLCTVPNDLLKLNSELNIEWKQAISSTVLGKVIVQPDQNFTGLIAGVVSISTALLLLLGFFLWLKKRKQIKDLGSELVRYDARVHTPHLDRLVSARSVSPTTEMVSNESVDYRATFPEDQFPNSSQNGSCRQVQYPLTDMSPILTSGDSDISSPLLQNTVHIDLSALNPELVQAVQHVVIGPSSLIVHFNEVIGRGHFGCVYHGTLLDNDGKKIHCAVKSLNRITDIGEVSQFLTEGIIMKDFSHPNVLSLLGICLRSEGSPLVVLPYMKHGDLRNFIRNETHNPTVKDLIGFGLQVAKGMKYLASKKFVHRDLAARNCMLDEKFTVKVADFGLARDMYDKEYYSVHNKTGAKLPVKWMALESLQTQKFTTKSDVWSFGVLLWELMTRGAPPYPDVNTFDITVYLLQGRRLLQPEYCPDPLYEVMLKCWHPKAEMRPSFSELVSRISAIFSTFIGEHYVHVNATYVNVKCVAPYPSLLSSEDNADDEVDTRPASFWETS

B1: H2 cys-diabody (other)
chain: [about 100 residues not shown]EGGKWYYGMDVWGRGTLVTVSSGGGGGSSSELTQDPAVSVALGQTVRITCQGDSLRSYYTNWFQQKPGQAPLLVVYAKNKRPSGIPDRFSGSGSGDTASLTITGAQAEDEADYYCNSRDSSGNYLFAAGTKLTVLGAAAEQKLISEEDLNGAAHHHHHHC
notes: Expressed in E. coli and purified through the His tag; also called H2 diabody
A word on the Kd: it is the constant that tells how readily two partners part at equilibrium. Take B1: the values for the Kd in assay [1] and in assay [2] were 0.6 nM and 0.61 nM, respectively.

B2: H2 ScFv antibody (phage-displayed) (scFv)
scFv: [about 100 residues not shown]EGGKWYYGMDVWGRGTLVTVSSGGGGGSGGGGSGGGGSSSELTQDPAVSVALGQTVRITCQGDSLRSYYTNWFQQKPGQAPLLVVYAKNKRPSGIPDRFSGSGSGDTASLTITGAQAEDEADYYCNSRDSSGNYLFAAGTKLTVLG
notes: The fusion to the phage coat protein is not described
As to B2, the binding result in assay [3] is recorded as “binds”.

The record behind these values is US10407503 (University of California, dated 2019).
